The supplement of paper PMC8728848
The other results are listed elsewhere or left out.

What was measured:
Experiment in all cases: glycan array binding signal (z-score within array); higher = stronger binding
Details in all cases: glycan notation: IUPAC condensed, linker removed
[1] = target: GlcNAc(b1-2)Gal(b1-3)GalNAc
In short: (§1)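 Columns mapping to the same glycan were averaged after glycan names were converted to IUPAC-condensed notation. The data come from 3228 arrays in the Consortium for Functional Glycomics database, limited to those with an available protein sequence. Binding is reported as a within-array Z-score averaged across arrays of one protein sequence and across linkers.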

[2] = target: GlcNAc(b1-2)Man(a1-3)[GlcNAc(b1-2)Man(a1-6)]Man(b1-4)GlcNAc(b1-4)GlcNAc
In short: as §1

[3] = target: GlcNAc(b1-2)Man(a1-3)[GlcNAc(b1-2)Man(a1-6)]Man(b1-4)GlcNAc(b1-4)[Fuc(a1-6)]GlcNAc
In short: as §1

[4] = target: GlcNAc(b1-2)Man(a1-3)[GlcNAc(b1-4)][GlcNAc(b1-2)Man(a1-6)]Man(b1-4)GlcNAc(b1-4)GlcNAc
In short: as §1

[5] = target: GlcNAc(b1-2)Man(a1-3)[GlcNAc(b1-4)][GlcNAc(b1-2)Man(a1-6)]Man(b1-4)GlcNAc(b1-4)[Fuc(a1-6)]GlcNAc
In short: as §1

[6] = target: GlcNAc(b1-2)[GlcNAc(b1-4)]Man(a1-3)[GlcNAc(b1-2)Man(a1-6)]Man(b1-4)GlcNAc(b1-4)GlcNAc
In short: as §1

[7] = target: GlcNAc(b1-2)[GlcNAc(b1-4)]Man(a1-3)[GlcNAc(b1-4)][GlcNAc(b1-2)Man(a1-6)]Man(b1-4)GlcNAc(b1-4)GlcNAc
In short: as §1

[8] = target: GlcNAc(b1-2)[GlcNAc(b1-4)]Man(a1-3)[GlcNAc(b1-4)][GlcNAc(b1-2)[GlcNAc(b1-6)]Man(a1-6)]Man(b1-4)GlcNAc(b1-4)GlcNAc
In short: as §1

[9] = target: GlcNAc(b1-2)[GlcNAc(b1-4)]Man(a1-3)[GlcNAc(b1-4)][GlcNAc(b1-2)[GlcNAc(b1-6)]Man(a1-6)]Man(b1-4)GlcNAc(b1-4)[Fuc(a1-6)]GlcNAc
In short: as §1

[10] = target: GlcNAc(b1-2)[GlcNAc(b1-6)]Man(a1-6)[GlcNAc(b1-2)Man(a1-3)]Man(b1-4)GlcNAc(b1-4)GlcNAc
In short: as §1

[11] = target: GlcNAc(b1-2)[GlcNAc(b1-6)]Man(a1-6)[GlcNAc(b1-2)Man(a1-3)]Man(b1-4)GlcNAc(b1-4)[Fuc(a1-6)]GlcNAc
In short: as §1

[12] = target: GlcNAc(b1-2)[GlcNAc(b1-6)]Man(a1-6)[GlcNAc(b1-4)][GlcNAc(b1-2)Man(a1-3)]Man(b1-4)GlcNAc(b1-4)GlcNAc
In short: as §1

GlcNAc(b1-3)Fuc = target: GlcNAc(b1-3)Fuc
In short: as §1

GlcNAc(b1-3)Gal = target: GlcNAc(b1-3)Gal
In short: as §1

[13] = target: GlcNAc(b1-3)Gal(b1-3)GalNAc
In short: as §1

GlcNAc(b1-3)Gal(b1-4)Glc = target: GlcNAc(b1-3)Gal(b1-4)Glc
In short: as §1

[14] = target: GlcNAc(b1-3)Gal(b1-4)GlcNAc
In short: as §1

[15] = target: GlcNAc(b1-3)Gal(b1-4)GlcNAc(b1-2)Man(a1-3)[GlcNAc(b1-3)Gal(b1-4)GlcNAc(b1-2)Man(a1-6)]Man(b1-4)GlcNAc(b1-4)GlcNAc
In short: as §1

[16] = target: GlcNAc(b1-3)Gal(b1-4)GlcNAc(b1-2)Man(a1-3)[GlcNAc(b1-3)Gal(b1-4)GlcNAc(b1-2)Man(a1-6)]Man(b1-4)GlcNAc(b1-4)[Fuc(a1-6)]GlcNAc
In short: as §1

[17] = target: GlcNAc(b1-3)Gal(b1-4)GlcNAc(b1-2)[GlcNAc(b1-3)Gal(b1-4)GlcNAc(b1-6)]Man(a1-6)[GlcNAc(b1-3)Gal(b1-4)GlcNAc(b1-2)Man(a1-3)]Man(b1-4)GlcNAc(b1-4)GlcNAc
In short: as §1

[18] = target: GlcNAc(b1-3)Gal(b1-4)GlcNAc(b1-3)Gal(b1-4)GlcNAc
In short: as §1

[19] = target: GlcNAc(b1-3)Gal(b1-4)GlcNAc(b1-3)Gal(b1-4)GlcNAc(b1-2)Man(a1-3)[GlcNAc(b1-3)Gal(b1-4)GlcNAc(b1-3)Gal(b1-4)GlcNAc(b1-2)Man(a1-6)]Man(b1-4)GlcNAc(b1-4)GlcNAc
In short: as §1

[20] = target: GlcNAc(b1-3)Gal(b1-4)GlcNAc(b1-3)Gal(b1-4)GlcNAc(b1-2)Man(a1-3)[GlcNAc(b1-3)Gal(b1-4)GlcNAc(b1-3)Gal(b1-4)GlcNAc(b1-2)Man(a1-6)]Man(b1-4)GlcNAc(b1-4)[Fuc(a1-6)]GlcNAc
In short: as §1

[21] = target: GlcNAc(b1-3)Gal(b1-4)GlcNAc(b1-3)Gal(b1-4)GlcNAc(b1-2)[GlcNAc(b1-3)Gal(b1-4)GlcNAc(b1-3)Gal(b1-4)GlcNAc(b1-6)]Man(a1-6)[GlcNAc(b1-3)Gal(b1-4)GlcNAc(b1-3)Gal(b1-4)GlcNAc(b1-2)Man(a1-3)]Man(b1-4)GlcNAc(b1-4)[Fuc(a1-6)]GlcNAc
In short: as §1

[22] = target: GlcNAc(b1-3)Gal(b1-4)GlcNAc(b1-3)Gal(b1-4)GlcNAc(b1-3)Gal(b1-4)GlcNAc(b1-2)Man(a1-3)[GlcNAc(b1-3)Gal(b1-4)GlcNAc(b1-3)Gal(b1-4)GlcNAc(b1-3)Gal(b1-4)GlcNAc(b1-2)Man(a1-6)]Man(b1-4)GlcNAc(b1-4)GlcNAc
In short: as §1

[23] = target: GlcNAc(b1-3)Gal(b1-4)GlcNAc(b1-3)Gal(b1-4)GlcNAc(b1-3)Gal(b1-4)GlcNAc(b1-2)Man(a1-3)[GlcNAc(b1-3)Gal(b1-4)GlcNAc(b1-3)Gal(b1-4)GlcNAc(b1-3)Gal(b1-4)GlcNAc(b1-2)Man(a1-6)]Man(b1-4)GlcNAc(b1-4)[Fuc(a1-6)]GlcNAc
In short: as §1

[24] = target: GlcNAc(b1-3)Gal(b1-4)GlcNAc(b1-3)Gal(b1-4)GlcNAc(b1-3)Gal(b1-4)GlcNAc(b1-2)[GlcNAc(b1-3)Gal(b1-4)GlcNAc(b1-3)Gal(b1-4)GlcNAc(b1-3)Gal(b1-4)GlcNAc(b1-6)]Man(a1-6)[GlcNAc(b1-3)Gal(b1-4)GlcNAc(b1-3)Gal(b1-4)GlcNAc(b1-3)Gal(b1-4)GlcNAc(b1-2)Man(a1-3)]Man(b1-4)GlcNAc(b1-4)[Fuc(a1-6)]GlcNAc
In short: as §1

[25] = target: GlcNAc(b1-3)Gal(b1-4)GlcNAc(b1-3)Gal(b1-4)GlcNAc(b1-3)Gal(b1-4)GlcNAc(b1-3)Gal(b1-4)GlcNAc(b1-2)Man(a1-3)[GlcNAc(b1-3)Gal(b1-4)GlcNAc(b1-3)Gal(b1-4)GlcNAc(b1-3)Gal(b1-4)GlcNAc(b1-3)Gal(b1-4)GlcNAc(b1-2)Man(a1-6)]Man(b1-4)GlcNAc(b1-4)GlcNAc
In short: as §1

[26] = target: GlcNAc(b1-3)Gal(b1-4)GlcNAc(b1-3)Gal(b1-4)GlcNAc(b1-3)Gal(b1-4)GlcNAc(b1-3)Gal(b1-4)GlcNAc(b1-2)Man(a1-3)[GlcNAc(b1-3)Gal(b1-4)GlcNAc(b1-3)Gal(b1-4)GlcNAc(b1-3)Gal(b1-4)GlcNAc(b1-3)Gal(b1-4)GlcNAc(b1-2)Man(a1-6)]Man(b1-4)GlcNAc(b1-4)[Fuc(a1-6)]GlcNAc
In short: as §1

[27] = target: GlcNAc(b1-3)Gal(b1-4)GlcNAc(b1-3)Gal(b1-4)GlcNAc(b1-3)Gal(b1-4)GlcNAc(b1-3)Gal(b1-4)GlcNAc(b1-2)[GlcNAc(b1-3)Gal(b1-4)GlcNAc(b1-3)Gal(b1-4)GlcNAc(b1-3)Gal(b1-4)GlcNAc(b1-3)Gal(b1-4)GlcNAc(b1-6)]Man(a1-6)[GlcNAc(b1-3)Gal(b1-4)GlcNAc(b1-3)Gal(b1-4)GlcNAc(b1-3)Gal(b1-4)GlcNAc(b1-3)Gal(b1-4)GlcNAc(b1-2)Man(a1-3)]Man(b1-4)GlcNAc(b1-4)[Fuc(a1-6)]GlcNAc
In short: as §1

[28] = target: GlcNAc(b1-3)Gal(b1-4)GlcNAc(b1-3)Gal(b1-4)GlcNAc(b1-3)GalNAc
In short: as §1

[29] = target: GlcNAc(b1-3)Gal(b1-4)GlcNAc(b1-3)GalNAc
In short: as §1

[30] = target: GlcNAc(b1-3)Gal(b1-4)GlcNAc(b1-3)[GlcNAc(b1-3)Gal(b1-4)GlcNAc(b1-3)]GalNAc
In short: as §1

[31] = target: GlcNAc(b1-3)Gal(b1-4)GlcNAc(b1-6)[Gal(b1-3)]GalNAc
In short: as §1

[32] = target: GlcNAc(b1-3)Gal(b1-4)GlcNAc(b1-6)[GlcNAc(b1-3)Gal(b1-3)]GalNAc
In short: as §1

[33] = target: GlcNAc(b1-3)Gal(b1-4)GlcNAc(b1-6)[GlcNAc(b1-3)]Gal(b1-4)GlcNAc
In short: as §1

GlcNAc(b1-3)GalNAc = target: GlcNAc(b1-3)GalNAc
In short: as §1

GlcNAc(b1-3)Man = target: GlcNAc(b1-3)Man
In short: as §1

[34] = target: GlcNAc(b1-3)[GlcNAc(b1-4)][GlcNAc(b1-6)]GlcNAc
In short: as §1

[35] = target: GlcNAc(b1-3)[GlcNAc(b1-6)]Gal(b1-4)GlcNAc
In short: as §1

[36] = target: GlcNAc(b1-3)[GlcNAc(b1-6)]GalNAc
In short: as §1

[37] = target: GlcNAc(b1-4)Gal(b1-4)GlcNAc
In short: as §1

GlcNAc(b1-4)GlcNAc = target: GlcNAc(b1-4)GlcNAc
In short: as §1

[38] = target: GlcNAc(b1-4)GlcNAc(b1-4)GlcNAc
In short: as §1

[39] = target: GlcNAc(b1-4)GlcNAc(b1-4)GlcNAc(b1-4)GlcNAc(b1-4)GlcNAc
In short: as §1

B1: SBD-G4S3-SBD (protein)
chain: MASIPSSASVQLDSYNYDGSTFSGKIYVKNIAYSKKVTVVYADGSDNWNNNGNIIAASFSGPISGSNYEYWTFSASVKGIKEFYIKYEVSGKTYYDNNNSANYQVSTGGGGSGGGGSGGGGSEFASIPSSASVQLDSYNYDGSTFSGKIYVKNIAYSKKVTVVYADGSDNWNNNGNIIAASFSGPISGSNYEYWTFSASVKGIKEFYIKYEVSGKTYYDNNNSANYQVST
[1]
  glycan array binding signal (z-score): -0.379
[2]
  glycan array binding signal (z-score): -0.43
[3]
  glycan array binding signal (z-score): -0.351
[4]
  glycan array binding signal (z-score): -0.314
[5]
  glycan array binding signal (z-score): -0.413
[6]
  glycan array binding signal (z-score): -0.402
[7]
  glycan array binding signal (z-score): -0.391
[8]
  glycan array binding signal (z-score): -0.401
[9]
  glycan array binding signal (z-score): -0.39
[10]
  glycan array binding signal (z-score): -0.318
[11]
  glycan array binding signal (z-score): -0.335
[12]
  glycan array binding signal (z-score): -0.347
GlcNAc(b1-3)Fuc
  glycan array binding signal (z-score): -0.358
GlcNAc(b1-3)Gal
  glycan array binding signal (z-score): -0.365
[13]
  glycan array binding signal (z-score): -0.334
GlcNAc(b1-3)Gal(b1-4)Glc
  glycan array binding signal (z-score): -0.331
[14]
  glycan array binding signal (z-score): -0.393
[15]
  glycan array binding signal (z-score): -0.366
[16]
  glycan array binding signal (z-score): -0.302
[17]
  glycan array binding signal (z-score): 2.56
[18]
  glycan array binding signal (z-score): -0.419
[19]
  glycan array binding signal (z-score): -0.203
[20]
  glycan array binding signal (z-score): -0.304
[21]
  glycan array binding signal (z-score): -0.26
[22]
  glycan array binding signal (z-score): -0.347
[23]
  glycan array binding signal (z-score): -0.264
[24]
  glycan array binding signal (z-score): -0.305
[25]
  glycan array binding signal (z-score): -0.349
[26]
  glycan array binding signal (z-score): -0.335
[27]
  glycan array binding signal (z-score): 0.027
[28]
  glycan array binding signal (z-score): -0.372
[29]
  glycan array binding signal (z-score): -0.417
[30]
  glycan array binding signal (z-score): -0.39
[31]
  glycan array binding signal (z-score): -0.393
[32]
  glycan array binding signal (z-score): -0.215
[33]
  glycan array binding signal (z-score): -0.406
GlcNAc(b1-3)GalNAc
  glycan array binding signal (z-score): -0.407
GlcNAc(b1-3)Man
  glycan array binding signal (z-score): -0.345
[34]
  glycan array binding signal (z-score): -0.408
[35]
  glycan array binding signal (z-score): -0.402
[36]
  glycan array binding signal (z-score): -0.362
[37]
  glycan array binding signal (z-score): -0.366
GlcNAc(b1-4)GlcNAc
  glycan array binding signal (z-score): -0.332
[38]
  glycan array binding signal (z-score): -0.367
[39]
  glycan array binding signal (z-score): -0.371
